Source: patent publication US9816991B2, “Diagnostic peptides for lyme disease” (Biopeptides Corp., priority 2012, dated 2017)
Where “and” joins values, the source holds several entries; their conditions need not be identical. Identical values can stand only once. Part of at least one peptide drawing is inferred or uncertain, most often the ends. Ends that are not written are not given here.

How the values were obtained:
[1] = test system: human IgG+IgM serum antibodies; assay: OppA2 peptide ELISA; assay type: binding
Procedure: 96-well plates (Nunc Maxisorp) were coated with 10 μg/mL peptide, diluted in 0.1M carbonate-bicarbonate buffer, pH 9.4 (50 μL per well), for 1 hour at room temperature. Blocking buffer 1% bovine serum albumin (BSA) in PBS was added to the wells (250 μL/well) and incubated overnight at 4° C. Wells were washed three times with PBS containing 0.05% Tween 20 (PBS-T) and incubated for 2 hours at room temperature with human samples diluted 1:100 in PBS-1% BSA. Each plate included samples from patients and healthy donors, and all samples were assayed in triplicate. After washing, wells were incubated for 1 hour at RT with a 1:15,000 dilution of HRP-conjugated secondary antibody against human IgG+IgM. Reactions were developed for 30 minutes with 3,3′,5,5′-tetramethylbenzidine (TMB) in the dark at room temperature and the reaction was stopped by the addition of 2N H2SO4. Optical densities were determined at 450 nm and 570 nm wavelengths using a SpectraMax Plus plate reader (Molecular Devices). The cutoff for seropositivity was defined as the mean optical density (OD) of the healthy control samples plus two standard deviations (SD).
OppA2 peptides react specifically with antibodies from Lyme disease patients. The nine peptides were further screened by ELISA using serum or plasma obtained from 104 patients with physician-diagnosed Lyme disease. All patients presented with one or more EM. Control sera was obtained from 45 healthy donors residing in a region of the United States non-endemic for LD, New Mexico. All peptides were incubated with serum in triplicate, and results were validated in two independent experiments. For each peptide, the threshold value for immunoreactivity was defined as the mean optical density (OD) value plus two standard deviations (SD) of results obtained using healthy donor sera. […] OppA2 (191-225) and OppA2 (381-400) were detected by only 2.2% and 6.7%, respectively, of the healthy donor samples.

[2] = test system: serum antibody (IgG and IgM); assay: Example I peptide ELISA screening with Lyme, normal and RPR+ sera; assay type: binding; conditions: goat anti-human IgG and IgM secondary antibody
[3] = test system: serum IgG and IgM antibodies; assay: Confirmatory ELISA of OspC peptides with high titer Lyme sera (FIG. 5); assay type: binding, human; conditions: 18 high titer Lyme sera, 10 healthy sera; mean absorbance
[4] = test system: serum IgM or IgG antibody; assay: OspC peptide ELISA, composite recognition by serum antibody (either IgM or IgG); assay type: binding, human; conditions: for composite recognition (IgM or IgG), Equivocal / composite recognition (IgM or IgG), Equivocal (samples/total): between 2 SD and 3 SD; for composite recognition (IgM or IgG), Negative / composite recognition (IgM or IgG), Negative (samples/total): less than 2 SD
serum IgM = assay: OspC peptide ELISA, detection of serum IgM; assay type: binding, human
serum IgG = assay: OspC peptide ELISA, detection of serum IgG; assay type: binding, human; conditions: for serum IgG binding, Equivocal / serum IgG binding, Equivocal (samples/total): between 2 SD and 3 SD; for serum IgG binding, Negative / serum IgG binding, Negative (samples/total): less than 2 SD
[5] = Control sera, Healthy blood donors
[6] = Lyme Disease sera, Blood culture negative (localized)
[7] = Lyme Disease sera, Blood culture positive (disseminated)
[8] = Lyme Disease sera, EM positive (1st visit)
[9] = Lyme Disease sera, Elisa Positive
[10] = Lyme sera, more than 3 SD from mean of healthy controls
[11] = Healthy sera, between 2 SD and 3 SD
[12] = ROC, Lyme sera vs all negative controls
[13] = ROC, Lyme sera vs healthy controls, cut-off 3SD
[14] = Syphillis sera, between 2 SD and 3 SD

## YGQNWTSPENMVTSGPFKLKERIPNEKYVFEKNNK [OppA (191-225)]
[1]; [5]
  Antibody positivity, % positive: 4.4%
  Antibody positivity, N° positive/Total: 2/45
[1]; Control sera, Healthy blood donors, listed as OppA2 (191-225)
  Antibody positivity, % positive: 2.2%
[1]; Control sera, RA
  Antibody positivity, % positive: 0%
  Antibody positivity, N° positive/Total: 0/30
[1]; Control sera, Syphilis (RPR+)
  Antibody positivity, % positive: 11.5%
  Antibody positivity, N° positive/Total: 3/26
[1]; [6]
  Antibody positivity, % positive: 0%
  Antibody positivity, N° positive/Total: 0/13
[1]; [7]
  Antibody positivity, % positive: 50%
  Antibody positivity, N° positive/Total: 5/10
[1]; [8]
  Antibody positivity, % positive: (63.4) %
  Antibody positivity, N° positive/Total: 64/104
[1]; Lyme Disease sera, EM positive (1st visit), listed as OppA2 (191-225)
  Antibody positivity, % positive: 63.4%
[1]; [9]
  Antibody positivity, % positive: (51.4) %
  Antibody positivity, N° positive/Total: 18/35
[1]; Lyme Disease sera, Wisconsin
  Antibody positivity, % positive: (89.1) %
  Antibody positivity, N° positive/Total: 41/46
[1]; mean optical density, in words
  mean reactivity with disseminating sera vs normal control samples / difference between patient groups: significantly higher
[2]
  binding of serum from Lyme disease patients compared to healthy individuals (normal sera) or patients with Syphilis (RPR+ sera): enhanced binding

## MTLFLFISCNNSGKDGNTSA [OspC1]
[3]
  serum antibody binding, Lyme disease patients compared to normal individuals: significantly higher
[4]; Lyme sera
  composite recognition (IgM or IgG), Equivocal: 15.3%
  composite recognition (IgM or IgG), Equivocal (samples/total): (15/98)
  composite recognition (IgM or IgG), Negative: 23.5%
  composite recognition (IgM or IgG), Negative (samples/total): (23/98)
[4]; Lyme sera, more than 3 SD
  composite recognition (IgM or IgG), Positive (samples/total): 60 out of 98 and 60 of 98 and (60/98)
[4]; [10]
  composite recognition by serum antibody (IgM or IgG), Positive: 62.1% and 62.9%
[4]; Normal sera
  composite recognition (IgM or IgG), Equivocal: 6.3%
  composite recognition (IgM or IgG), Equivocal (samples/total): (3/48)
  composite recognition (IgM or IgG), Negative: 92.7%
  composite recognition (IgM or IgG), Negative (samples/total): (44/48)
[4]; Normal sera, more than 3 SD
  composite recognition (IgM or IgG), Positive: 2.0%
  composite recognition (IgM or IgG), Positive (samples/total): (1/48)
[4]; early Lyme sera
  composite recognition (IgM or IgG), positive+equivocal: 76.5%
  composite recognition (IgM or IgG), positive+equivocal (samples of total): 75 of 98
Serum IgM; [11]
  serum IgM binding, Equivocal: 2%
  serum IgM binding, Equivocal (samples/total): (1/48)
Serum IgM; Healthy sera, less than 2 SD
  serum IgM binding, Negative: 98%
  serum IgM binding, Negative (samples/total): (47/48)
Serum IgM; Healthy sera, more than 3 SD
  serum IgM binding, Positive: 0%
  serum IgM binding, Positive (samples/total): (0/48)
Serum IgM; Lyme sera, between 2 SD and 3 SD
  serum IgM binding, Equivocal (samples/total): (8/97)
Serum IgM; Lyme sera, between 2 SD and 3 SD from mean of healthy controls
  serum IgM binding, Equivocal: 8.2%
Serum IgM; Lyme sera, less than 2 SD
  serum IgM binding, Negative (samples/total): (42/97)
Serum IgM; Lyme sera, less than 2 SD from mean of healthy controls
  serum IgM binding, Negative: 43.3%
Serum IgM; [10]
  serum IgM binding, Positive: 48.5%
  serum IgM binding, Positive (samples/total): 47 of 97 and (47/97)
Serum IgM; RA sera, between 2 SD and 3 SD
  serum IgM binding, Equivocal: 6.2%
  serum IgM binding, Equivocal (samples/total): (3/48)
Serum IgM; RA sera, less than 2 SD
  serum IgM binding, Negative: 91.8%
  serum IgM binding, Negative (samples/total): (44/48)
Serum IgM; RA sera, more than 3 SD
  serum IgM binding, Positive: 2.0%
  serum IgM binding, Positive (samples/total): (1/48)
Serum IgM; ROC analysis
  area under the curve (AUC), IgM: 0.8047
Serum IgM; [12]
  sensitivity for IgM: 41.24%
  specificity for IgM: 98.52%
Serum IgM; [13]
  sensitivity for IgM detection: 41.24%
  specificity for IgM detection: 100.00%
Serum IgM; [14]
  serum IgM binding, Equivocal: 12.8%
  serum IgM binding, Equivocal (samples/total): (5/39)
Serum IgM; Syphillis sera, less than 2 SD
  serum IgM binding, Negative: 76.9%
  serum IgM binding, Negative (samples/total): (30/39)
Serum IgM; Syphillis sera, more than 3 SD
  serum IgM binding, Positive: 10.3%
  serum IgM binding, Positive (samples/total): (4/39)
Serum IgM; serum from 48 healthy donors, mean±SD, absorbance 450 nm-570 nm
  mean absorbance, binding of IgM: 0.316±0.187
Serum IgG; Healthy sera
  serum IgG binding, Equivocal: 4.2%
  serum IgG binding, Equivocal (samples/total): (2/48)
  serum IgG binding, Negative: 93.8%
  serum IgG binding, Negative (samples/total): (45/48)
Serum IgG; Healthy sera, more than 3 SD
  serum IgG binding, Positive: 2.0%
  serum IgG binding, Positive (samples/total): (1/48)
Serum IgG; Lyme sera
  serum IgG binding, Equivocal: 16.3%
  serum IgG binding, Equivocal (samples/total): (16/98)
  serum IgG binding, Negative: 59.2%
  serum IgG binding, Negative (samples/total): (58/98)
Serum IgG; Lyme sera, more than 3 SD
  serum IgG binding, Positive (samples/total): 24 of 98 and (24/98)
Serum IgG; [10]
  serum IgG binding, Positive: 24.5%
Serum IgG; RA sera
  serum IgG binding, Equivocal: 6.2%
  serum IgG binding, Equivocal (samples/total): (3/48)
  serum IgG binding, Negative: 81.3%
  serum IgG binding, Negative (samples/total): (39/48)
Serum IgG; RA sera, more than 3 SD
  serum IgG binding, Positive: 12.5%
  serum IgG binding, Positive (samples/total): (6/48)
Serum IgG; ROC analysis
  area under the curve (AUC), IgG: 0.7296
Serum IgG; [12]
  sensitivity for IgG: 24.49%
  specificity for IgG: 92.59%
Serum IgG; [13]
  sensitivity for IgG detection: 24.92%
  specificity for IgG detection: 97.92%
Serum IgG; Syphillis sera
  serum IgG binding, Equivocal: 17.9%
  serum IgG binding, Equivocal (samples/total): (7/39)
  serum IgG binding, Negative: 74.4%
  serum IgG binding, Negative (samples/total): (29/39)
Serum IgG; Syphillis sera, more than 3 SD
  serum IgG binding, Positive: 7.7%
  serum IgG binding, Positive (samples/total): (3/39)
Serum IgG; normal control sera, FIG. 7b
  false positives within the normal control sera (IgG): no false positives
Serum IgG; serum from healthy controls, mean±SD, absorbance 450 nm-570 nm
  mean absorbance, binding of IgG: 0.139±0.051 and 0.139±0.049
[2]
  binding of serum from Lyme disease patients compared to healthy individuals (normal sera) or patients with Syphilis (RPR+ sera): enhanced binding
